# According to PMC4448209 (Journal of Neuroinflammation, 2015):
# Experiments:
# [1] = system: IFNγ-secreting splenocytes; assay: IFNγ ELISPOT, splenocytes of immunized C57BL/6 mice; type: in vivo, mouse; details: C57BL/6 mice immunized with Aβ/CpG/IFA; day 14; restimulated with Aβ1-42 (40 μg/ml) or nonamers (10 μg/ml)
# [2] = system: IFNγ-secreting splenocytes
Substance,IFNγ secretion by splenocytes [1],"IFNγ-secreting T cell response ([2]; HLA-A2.1/HLA-DR1 mice immunized with Aβ1-42/CpG/IFA, day 14, ELISPOT, Aβ1-42 40 μg/ml or 15-mers 10 μg/ml)","IFNγ-secreting splenocytes ([2]; HLA-A2.1/HLA-DR1 mice immunized sc with Aβ16-24 or Aβ33-41 in CpG/Padre/IFA, restimulated 18 h with the named peptide 10 μg/ml)"
Aβ1-42: Human Aβ1-42 peptide,splenocytes secreted IFNγ in response to full-length Aβ1-42,only CD4^+ T cells that secrete IFNγ responded to Aβ1-42 immunization and recognized an immunodominant epitope located between amino acids 1–18,
GLMVGGVVI [Aβ33-41],,,weak or null
